# Over roughly 16,000 sequences, “Z-score” has its median near -0.37; the highest 2% begin near 3.2. This is one part of the list.
# Test system: RBM10 RRM1-ZnF (GST-tagged construct)
# Assay: RNAcompete 7-mer binding Z-score; higher = stronger binding preference
# Procedure, shortened: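 GST-tagged RBM10 constructs (20 pmol) were mixed with a designed pool of 241 399 RNAs up to 41 nt (1.5 nmol), transcribed from microarray-derived DNA templates. Mixing was in 1 ml Hepes pH 7.8 buffer with KCl, NaCl, glycerol, DTT, BSA and glutathione Sepharose beads. Binding ran 30 min at 4°C, followed by four 2-min washes at 4°C, and bound RNA was identified by microarray hybridisation. Each heptamer motif received a one-sided Z-score for enrichment across probes containing it.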
row,Sequence,RNAcompete 7-mer binding Z-score
1,ACCUACG,-0.701
2,UUAUGUG,-0.00246
3,GCGGUGC,0.884
4,AAAUGUG,0.501
5,CGGUUUG,0.508
6,GAUCGUC,-0.558
7,UAAGACG,0.17
8,GGUUGUG,2.29
9,CGUCACG,-0.464
10,CUGAAUG,-0.285
11,CGAUAGU,-0.272
12,CAAGUAC,-0.642
13,GCGCGUU,-0.318
14,GCCUCCA,-0.743
15,UAGGACA,1.11
16,CACAAGA,-0.548
17,CUUUAGA,-0.704
18,ACCGAUG,-0.347
19,GCCUGAA,-0.623
20,AGAGCUG,0.163
21,GUGGGGG,4.47
22,UUAGUCU,-0.662
23,UCGUAUC,-0.672
24,GAGCGCC,-0.402

row,Sequence,RNAcompete 7-mer binding Z-score
1,CUACCGU,-0.753
2,CCUCUAU,-0.769
3,AGACAAC,-0.552
4,GUUUCCA,-0.561
5,UUAACGU,-0.324
6,AACGACC,-0.626
7,CAGGGUU,2.15
8,UCGUAGA,-0.318
9,GAGACUG,-0.00571
10,AACGGGC,2.01
11,UAUGCCG,-0.733
12,GCAUCGC,-0.47
13,AACCGAG,-0.168
14,CGCGCGA,-0.168
15,CUGAGUU,-0.389
16,UGACCUC,-0.805
17,AGGGGUG,3.85
18,GGGUUUG,3.12
19,CGUCCAG,-0.47
20,CAUGCCG,-0.714
21,CUUUUGC,-0.98
22,ACACUUA,-0.665
23,CCUCGUC,-0.623
24,UGACAAU,-0.149

row,Sequence,RNAcompete 7-mer binding Z-score
1,AGCUUUU,-0.698
2,GACUUAU,-0.6
3,GCAGAGG,2.29
4,UGAGCCG,-0.201
5,UUCACGU,-0.678
6,UCAUGUA,-0.272
7,CCGAAAA,-0.629
8,AAAGGUU,3.12
9,CUUUGGG,0.654
10,UGGGCGA,2.53
11,GAGGGCC,0.696
12,CUACAUU,-0.87
13,CAUCGGU,-0.178
14,AGCUGCC,-0.672
15,UUUCAAG,-0.639
16,AGAGGAA,2.29
17,UCGACCC,-0.548
18,AUAAAAU,-0.474
19,AGUCUUG,-0.483
20,AGGGCCA,0.215
21,GCGAAGC,0.0918
22,CGCUACU,-0.61
23,GAUUCCU,-0.727
24,GUCGGGC,0.81

row,Sequence,RNAcompete 7-mer binding Z-score
1,UCGGUCG,-0.0837
2,UGAGUAU,-0.0837
3,UUACCGA,-0.529
4,GCCGAGA,-0.275
5,UAUUCCA,-0.769
6,GGAACAC,0.829
7,GUUAUGC,-0.331
8,AAUUACA,-0.555
9,ACGCAGU,-0.37
10,AUUGACG,-0.275
11,AUGCGAG,0.569
12,CGGCCCG,-0.441
13,CUUACAA,-0.662
14,GAUGACG,0.654
15,CACUGGU,-0.0934
16,CAGGUGA,1.49
17,AAGCGAA,0.056
18,CGCGCAC,-0.35
19,GCAGUGU,0.218
20,GGAUAGA,2.61
21,GUCAGUC,-0.256
22,UAACCCU,-0.815
23,AGAAGCC,-0.733
24,UUCGAUU,-0.691

row,Sequence,RNAcompete 7-mer binding Z-score
1,UAAAUCC,-0.789
2,CCCUCAU,-0.779
3,CCCAUUA,-0.954
4,GUAGGCG,1.89
5,UUCAUCC,-0.902
6,CUGAAAC,-0.561
7,GGAUUGC,1.16
8,AGCACCC,-0.49
9,GGAUAGG,4.11
10,GCUGGAC,0.228
11,GAACGGC,0.693
12,ACUACGC,-0.642
13,AUGGCCC,-0.34
14,AGUUGUA,-0.0642
15,CAAUGUC,-0.75
16,UUGCCCU,-0.617
17,AAUUGAU,-0.194
18,CCAACAC,-0.5
19,CAACAGA,-0.168
20,ACUACAC,-0.506
21,GCCGUAA,-0.555
22,CUUAACG,-0.655
23,ACGCACA,-0.448
24,GGAGUGU,2.48

row,Sequence,RNAcompete 7-mer binding Z-score
1,GCGGAAG,1.81
2,ACUAUAC,-0.642
3,CUCUGAC,-0.72
4,CCAAGGU,0.257
5,UCUUUUA,-0.782
6,GCAUUAU,-0.353
7,GUUCUAA,-0.552
8,UGCAGAG,0.482
9,GCCAUCA,-0.678
10,AGUUUGU,-0.223
11,GGCUAUU,-0.233
12,CUCAAAA,-0.675
13,GUCGCUC,-0.425
14,ACCUGGA,-0.366
15,UUCUGCU,-0.867
16,GCAGGGA,2.92
17,CCGUUAG,-0.415
18,UAUGUCA,-0.282
19,GAGUGUC,0.0333
20,CCUUACU,-0.886
21,GGCAUUC,-0.298
22,UUCUAAC,-0.73
23,CCUGCCG,-0.444
24,CUGUGUC,-0.61

row,Sequence,RNAcompete 7-mer binding Z-score
1,GAGAACC,-0.275
2,UGGUCCU,-0.376
3,AAACUGC,-0.617
4,UAAUUAC,-0.649
5,CUGGGCG,1.15
6,ACGGCAU,0.153
7,CACGACU,-0.61
8,AGCGCCA,-0.262
9,GGUUAUG,1.69
10,GACGUUC,-0.74
11,CGAGUGA,0.381
12,AAUGCUU,-0.678
13,UGCCCAC,-0.383
14,UGAGGAU,1.81
15,AUCUAAA,-0.451
16,ACAGGUG,1.91
17,AUUGUGU,-0.363
18,GGAGUUA,1.66
19,CUCCAGU,-0.714
20,CUUUAUU,-0.811
21,GAGCGCA,-0.00246
22,CUCACCC,-0.646
23,AGAUAAC,-0.49
24,GGGACGC,1.06

row,Sequence,RNAcompete 7-mer binding Z-score
1,UGGUUGC,0.758
2,UCGUUUG,-0.243
3,UCAUAAA,-0.552
4,GCUACCU,-0.766
5,GGGACCC,0.797
6,ACAUCGA,-0.48
7,UCAACUA,-0.737
8,ACCUGCC,-0.834
9,GCGUGUG,0.621
10,GUGCCAG,0.131
11,UUGAUAU,-0.379
12,GCGAUGU,0.254
13,UGUCCAC,-0.558
14,ACGCCAA,-0.558
15,AUGGGCA,2.11
16,AUACGCG,-0.311
17,CUACCGA,-0.604
18,CCGUACC,-0.694
19,AUAUUUC,-0.691
20,CAUCCGC,-0.847
21,ACUAAAA,-0.581
22,ACCUAAA,-0.798
23,GGCCUAC,-0.629
24,CUGUUAG,-0.545

row,Sequence,RNAcompete 7-mer binding Z-score
1,UCCACUU,-0.883
2,CAUGCGC,-0.772
3,CGACAAU,-0.425
4,AUUGGUG,2.27
5,GGGGUGU,4.3
6,ACUCACC,-0.626
7,GUUAGUC,-0.132
8,ACCUUCG,-0.815
9,AGCGCGU,-0.292
10,CUAGCGA,-0.347
11,AUGUGUU,0.0723
12,CCAAAUC,-0.785
13,CUAAUUU,-0.867
14,AUGCUGU,-0.584
15,ACUGUCA,-0.584
16,UUAGAGC,-0.227
17,CUAAUUC,-0.834
18,AAUGGGA,4.35
19,UCGCGGG,1.31
20,GACGCGU,-0.142
21,UGUAAAA,-0.21
22,GAAAAGU,0.504
23,GUACUGA,0.0138
24,ACUCUCG,-0.785

row,Sequence,RNAcompete 7-mer binding Z-score
1,CCUGUCC,-0.763
2,UGUCAGU,-0.0739
3,GGCACAC,0.202
4,CUCUCUG,-0.769
5,AUCGCAG,-0.204
6,CUACUCU,-0.727
7,AGAGACA,-0.0155
8,CCUAGCG,-0.496
9,UUUAAGC,-0.779
10,AAAGAAC,-0.0674
11,AGUUUCU,-0.711
12,CUGCGCA,-0.435
13,GUCGUGA,0.215
14,CAGACUA,-0.503
15,CACACAG,-0.279
16,CCCAAUA,-0.711
17,CCGGCCA,-0.727
18,UCUGCCC,-0.597

# Source: the supplement of paper PMC5499739
